Measurements published in PMC12820563, “FoxP3 forms a head-to-head dimer in vivo and stabilizes its multimerization on adjacent microsatellites”.
This is one part of the list.

These sequences were tested against T1, MBP-FoxP1dN (Mus musculus, UniProt P58462 326-579) (assay: PD-seq (MBP pull-down with sequencing); 20 mM Tris-HCl pH 7.5, 100 mM NaCl, 1.5 mM MgCl2, 0.4 uM protein, 0.1 uM dsDNA library, 30 min, room temperature, amylose pull-down; high values mean tight binding). Conditions: protein: recombinant; tags: His6-MBP; chain copies: 2; dsDNA, one strand shown.
T1 sequence: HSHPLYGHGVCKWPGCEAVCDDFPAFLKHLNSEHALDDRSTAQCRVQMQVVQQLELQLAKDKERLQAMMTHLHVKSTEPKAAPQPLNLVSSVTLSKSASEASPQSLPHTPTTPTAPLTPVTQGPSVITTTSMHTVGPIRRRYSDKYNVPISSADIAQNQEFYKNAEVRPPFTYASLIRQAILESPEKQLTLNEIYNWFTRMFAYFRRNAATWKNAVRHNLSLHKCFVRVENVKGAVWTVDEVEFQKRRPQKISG
How it was run: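 Mouse FoxP3 or FoxP1 fragment lacking the N-terminus, His6-MBP-tagged and expressed in E. coli, was incubated at 0.4 µM with 0.1 µM Klenow-filled degenerate double-stranded DNA library for 30 min at room temperature in Tris pH 7.5 buffer with NaCl and MgCl2. Complexes captured on amylose resin were washed three times and their DNA sequenced on Illumina. Binding is reads-per-million enrichment of pull-down over input, replicates pooled.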

Sequence | binding signal
GATGATTGTTCTCCCAGCTGATGAATTAATGTTCTCGAGTAAACAAATTTTCCTAATCTTTCTGTTCAAGCGCCATCTAC | 1.04 RPM ratio (pull-down/input)
GATGATTGTTCTCCCAGCTGATGAATTGGATCGTTCGAGTAAACAAATTTTCCTAATCTTTCTGTTCAAGCGCCATCTAC | 0.864 RPM ratio (pull-down/input)
GATGATTGTTCTCCCAGCTGATGAATTGCTCGGCTCGAGTAAACAAATTTTCCTAATCTTTCTGTTCAAGCGCCATCTAC | 0.843 RPM ratio (pull-down/input)
GATGATTGTTCTCCCAGCTGATGAATTAGAATTCTCGAGTAAACAAATTTTCCTAATCTTTCTGTTCAAGCGCCATCTAC | 0.808 RPM ratio (pull-down/input)
GATGATTGTTCTCCCAGCTGATGAATTGTACGATTCGAGTAAACAAATTTTCCTAATCTTTCTGTTCAAGCGCCATCTAC | 0.934 RPM ratio (pull-down/input)
GATGATTGTTCTCCCAGCTGATGAATTGGGTTACTCGAGTAAACAAATTTTCCTAATCTTTCTGTTCAAGCGCCATCTAC | 0.886 RPM ratio (pull-down/input)
GATGATTGTTCTCCCAGCTGATGAATTTTTGATATCGAGTAAACAAATTTTCCTAATCTTTCTGTTCAAGCGCCATCTAC | 1.17 RPM ratio (pull-down/input)
GATGATTGTTCTCCCAGCTGATGAATTCCCGCAGTCGAGTAAACAAATTTTCCTAATCTTTCTGTTCAAGCGCCATCTAC | 0.75 RPM ratio (pull-down/input)
GATGATTGTTCTCCCAGCTGATGAATTCAGGCCCTCGAGTAAACAAATTTTCCTAATCTTTCTGTTCAAGCGCCATCTAC | 0.789 RPM ratio (pull-down/input)
GATGATTGTTCTCCCAGCTGATGAATTTCCGACATCGAGTAAACAAATTTTCCTAATCTTTCTGTTCAAGCGCCATCTAC | 0.936 RPM ratio (pull-down/input)
GATGATTGTTCTCCCAGCTGATGAATTCGACAGATCGAGTAAACAAATTTTCCTAATCTTTCTGTTCAAGCGCCATCTAC | 0.791 RPM ratio (pull-down/input)
GATGATTGTTCTCCCAGCTGATGAATTAAGCCAATCGAGTAAACAAATTTTCCTAATCTTTCTGTTCAAGCGCCATCTAC | 1.03 RPM ratio (pull-down/input)
GATGATTGTTCTCCCAGCTGATGAATTTGACTTCTCGAGTAAACAAATTTTCCTAATCTTTCTGTTCAAGCGCCATCTAC | 0.82 RPM ratio (pull-down/input)
GATGATTGTTCTCCCAGCTGATGAATTTCGTTGATCGAGTAAACAAATTTTCCTAATCTTTCTGTTCAAGCGCCATCTAC | 1.11 RPM ratio (pull-down/input)
GATGATTGTTCTCCCAGCTGATGAATTGTCGCGGTCGAGTAAACAAATTTTCCTAATCTTTCTGTTCAAGCGCCATCTAC | 0.917 RPM ratio (pull-down/input)
GATGATTGTTCTCCCAGCTGATGAATTACCAAGTTCGAGTAAACAAATTTTCCTAATCTTTCTGTTCAAGCGCCATCTAC | 1.04 RPM ratio (pull-down/input)
GATGATTGTTCTCCCAGCTGATGAATTGAACGATTCGAGTAAACAAATTTTCCTAATCTTTCTGTTCAAGCGCCATCTAC | 0.875 RPM ratio (pull-down/input)
GATGATTGTTCTCCCAGCTGATGAATTTTCTTTCTCGAGTAAACAAATTTTCCTAATCTTTCTGTTCAAGCGCCATCTAC | 0.955 RPM ratio (pull-down/input)
GATGATTGTTCTCCCAGCTGATGAATTCCCTCCTTCGAGTAAACAAATTTTCCTAATCTTTCTGTTCAAGCGCCATCTAC | 0.773 RPM ratio (pull-down/input)
GATGATTGTTCTCCCAGCTGATGAATTAATAATGTCGAGTAAACAAATTTTCCTAATCTTTCTGTTCAAGCGCCATCTAC | 1.13 RPM ratio (pull-down/input)

Sequence | binding signal
GATGATTGTTCTCCCAGCTGATGAATTGTCGTTCTCGAGTAAACAAATTTTCCTAATCTTTCTGTTCAAGCGCCATCTAC | 1.12 RPM ratio (pull-down/input)
GATGATTGTTCTCCCAGCTGATGAATTGTATTCGTCGAGTAAACAAATTTTCCTAATCTTTCTGTTCAAGCGCCATCTAC | 1.27 RPM ratio (pull-down/input)
GATGATTGTTCTCCCAGCTGATGAATTTCCTTTTTCGAGTAAACAAATTTTCCTAATCTTTCTGTTCAAGCGCCATCTAC | 0.838 RPM ratio (pull-down/input)
GATGATTGTTCTCCCAGCTGATGAATTTCGACACTCGAGTAAACAAATTTTCCTAATCTTTCTGTTCAAGCGCCATCTAC | 0.91 RPM ratio (pull-down/input)
GATGATTGTTCTCCCAGCTGATGAATTGTTGTTGTCGAGTAAACAAATTTTCCTAATCTTTCTGTTCAAGCGCCATCTAC | 3.2 RPM ratio (pull-down/input)
GATGATTGTTCTCCCAGCTGATGAATTGGATACATCGAGTAAACAAATTTTCCTAATCTTTCTGTTCAAGCGCCATCTAC | 1.11 RPM ratio (pull-down/input)
GATGATTGTTCTCCCAGCTGATGAATTATGAATTTCGAGTAAACAAATTTTCCTAATCTTTCTGTTCAAGCGCCATCTAC | 1.03 RPM ratio (pull-down/input)
GATGATTGTTCTCCCAGCTGATGAATTGAAAAGCTCGAGTAAACAAATTTTCCTAATCTTTCTGTTCAAGCGCCATCTAC | 0.825 RPM ratio (pull-down/input)
GATGATTGTTCTCCCAGCTGATGAATTATGTCCCTCGAGTAAACAAATTTTCCTAATCTTTCTGTTCAAGCGCCATCTAC | 0.996 RPM ratio (pull-down/input)
GATGATTGTTCTCCCAGCTGATGAATTTTGATTATCGAGTAAACAAATTTTCCTAATCTTTCTGTTCAAGCGCCATCTAC | 1.79 RPM ratio (pull-down/input)
GATGATTGTTCTCCCAGCTGATGAATTGGGCCTCTCGAGTAAACAAATTTTCCTAATCTTTCTGTTCAAGCGCCATCTAC | 0.766 RPM ratio (pull-down/input)
GATGATTGTTCTCCCAGCTGATGAATTACTGATATCGAGTAAACAAATTTTCCTAATCTTTCTGTTCAAGCGCCATCTAC | 1.18 RPM ratio (pull-down/input)
GATGATTGTTCTCCCAGCTGATGAATTTCGGTTCTCGAGTAAACAAATTTTCCTAATCTTTCTGTTCAAGCGCCATCTAC | 0.825 RPM ratio (pull-down/input)
GATGATTGTTCTCCCAGCTGATGAATTAACAATTTCGAGTAAACAAATTTTCCTAATCTTTCTGTTCAAGCGCCATCTAC | 1.31 RPM ratio (pull-down/input)
GATGATTGTTCTCCCAGCTGATGAATTCACTTTCTCGAGTAAACAAATTTTCCTAATCTTTCTGTTCAAGCGCCATCTAC | 0.841 RPM ratio (pull-down/input)
GATGATTGTTCTCCCAGCTGATGAATTTGATGGTTCGAGTAAACAAATTTTCCTAATCTTTCTGTTCAAGCGCCATCTAC | 0.912 RPM ratio (pull-down/input)
GATGATTGTTCTCCCAGCTGATGAATTTTCCGATTCGAGTAAACAAATTTTCCTAATCTTTCTGTTCAAGCGCCATCTAC | 0.884 RPM ratio (pull-down/input)
GATGATTGTTCTCCCAGCTGATGAATTACGATGTTCGAGTAAACAAATTTTCCTAATCTTTCTGTTCAAGCGCCATCTAC | 1.18 RPM ratio (pull-down/input)
GATGATTGTTCTCCCAGCTGATGAATTCGACCGATCGAGTAAACAAATTTTCCTAATCTTTCTGTTCAAGCGCCATCTAC | 0.823 RPM ratio (pull-down/input)
GATGATTGTTCTCCCAGCTGATGAATTACGTGCGTCGAGTAAACAAATTTTCCTAATCTTTCTGTTCAAGCGCCATCTAC | 1.08 RPM ratio (pull-down/input)
